Source: patent publication US11630109B2, “Sensors and assays for ubiquitin or ubiquitin-like proteins” (Colorado State University Research Foundation, priority 2013, dated 2023)

Tested on: conjugated ubiquitin
Test: Relative fluorescence intensity of Atto532-tISR L1 Cys2 on addition of conjugated ubiquitin
Type: binding
Details: same concentrations (0-1000 nM) of conjugated ubiquitin
Excerpt: In this chimeric polypeptide sensor, the L1 Cys2, the linker between the IsoT^ZnF and the UIM, has a Cys conjugated with the fluorophore. Relative fluorescence intensity of Atto532-tISR L1 Cys2 is shown with different concentrations of free ubiquitin proteins (triangles) or conjugated ubiquitin proteins.
Another chimeric polypeptide sensor, Atto532-tISR L1 Cys2, was constructed. This chimeric polypeptide comprises three binding domains. […] In this chimeric polypeptide sensor, L1 Cys2 is the linker between the IsoT^ZnF and the UIM and has a Cys residue conjugated with the fluorophore. Relative fluorescence intensity of Atto532-tISR L1 Cys2 was measured following the addition of different concentrations of free ubiquitin proteins or conjugated ubiquitin proteins. […] There was little change in fluorescence intensity across the same concentrations of conjugated ubiquitin.

B1: Atto532-tISR L1 Cys2: tISR sensor with three binding domains; Cys in linker between IsoT ZnF and UIM conjugated with Atto532 (conjugate)
chain: MPSSHHHHHHSSGLVPRGSHMKQEVQAWDGEVRQVSKHAFSLKQLDNPARIPPSGWKCSKCDMRENLWLNLTDGSILCGRRYWDGSGGNNHAVEHYRETGYPLAVKLGTITPDGADVWSYDEDDMVLDPSLAEHLSHFGIDMLKMQKGSCAAEEAEEQIAYAMQMSLREAGGGSDLLCKKGCGYYGNPAWQGFCSKCWREEAHKAAQK
  change in fluorescence intensity with conjugated ubiquitin: little change
